This passage reports z-score results from PubChem BioAssay AID488969 (Vanderbilt High Throughput Screening Facility, 2010).

The full ranking holds about 110,000 compounds; the median of “z-score” is about -0.1, and the highest 2% start at about 2. This is one part of the list. The source made the active and inactive calls.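 How the source made its calls: active means z-score in the third read window above 3 or below -3; inactive means the rest.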

For this assay, the target named is Metabotropic glutamate receptor 8 (Rattus norvegicus) (UniProt P70579). Put plainly: mGluR8 Gi/Go-coupled signaling modulation – cell-based, rat, thallium flux, HTS, primary screen (AID 488969). Conditions: HEK293 rat mGluR8, GIRK (G protein-gated inwardly rectifying potassium channel) thallium flux, FluoZin2; at 10 µM; stronger effect = higher value; submaximal glutamate (EC20) added with thallium.
Sequence of UniProt P70579 (P70579 whole entry, looked up): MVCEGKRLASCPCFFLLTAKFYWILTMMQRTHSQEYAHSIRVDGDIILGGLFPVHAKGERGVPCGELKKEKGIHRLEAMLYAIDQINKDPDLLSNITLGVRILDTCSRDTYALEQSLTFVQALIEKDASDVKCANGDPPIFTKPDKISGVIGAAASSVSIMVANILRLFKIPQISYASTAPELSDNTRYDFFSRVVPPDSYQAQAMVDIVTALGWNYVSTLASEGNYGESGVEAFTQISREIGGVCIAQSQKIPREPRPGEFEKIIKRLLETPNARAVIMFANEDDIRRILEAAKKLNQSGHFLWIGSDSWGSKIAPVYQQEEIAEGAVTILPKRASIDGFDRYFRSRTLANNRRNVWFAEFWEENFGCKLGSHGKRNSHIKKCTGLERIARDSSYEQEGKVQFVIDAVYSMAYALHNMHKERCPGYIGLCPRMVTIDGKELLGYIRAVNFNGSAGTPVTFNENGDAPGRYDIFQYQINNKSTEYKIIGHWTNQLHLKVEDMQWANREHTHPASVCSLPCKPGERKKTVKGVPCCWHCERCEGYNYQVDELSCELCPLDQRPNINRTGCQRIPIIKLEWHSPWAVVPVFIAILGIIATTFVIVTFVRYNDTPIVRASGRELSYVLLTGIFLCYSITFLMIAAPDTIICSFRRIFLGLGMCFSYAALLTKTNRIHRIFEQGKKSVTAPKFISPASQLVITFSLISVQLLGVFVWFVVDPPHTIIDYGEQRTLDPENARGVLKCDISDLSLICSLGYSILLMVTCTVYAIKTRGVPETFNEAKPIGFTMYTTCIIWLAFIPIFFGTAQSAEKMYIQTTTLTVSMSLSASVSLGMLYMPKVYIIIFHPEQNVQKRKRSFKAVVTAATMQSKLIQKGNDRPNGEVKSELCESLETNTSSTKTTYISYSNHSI
The molecule `CN(C)Cc1c(O)ccc2occ(C(O)c3ccccc3)c12` (centres undefined) returned a z-score of 1.31.
The molecule `C=CCN1C(=O)CN=C1Nc1cc(C)ccc1C` displayed a z-score of 0.367.
Under `O=[N+]([O-])c1ccccc1OCCOCCOc1cccc2cccnc12` stands 0.0205; under `CCOc1ccc(Nc2nc3ccccc3n3nnnc23)cc1`, -0.183; under `CC1CC(C(F)F)n2nc(C(=O)O)cc2N1` (centres undefined), -0.126.
For `O=C(CCCOc1ccc(Cl)cc1)N1CCCCCC1` the value was -0.152; for `CCCCNC(=O)Oc1cccc(N2CCCC2=O)c1`, -0.317; for `CSc1nccc(-c2nn(-c3ccc(C)cc3)ccc2=O)n1`, -0.18.
Under `COc1ccc(-c2csc(N3C(=O)CNC3=S)n2)cc1` stands 0.492; under `CCCN1C(=O)/C(=C/c2ccc(N3CCCC3)c(C)c2)NC1=S`, active: 11; under `Cc1noc(C)c1C(=O)Nc1cccnc1`, -0.49.
For `Nc1cc(N)nc(SCc2cccnc2)n1`, the z-score was -0.0787.
For `CCOC(=O)C1=C(Cn2ccc(C(F)(F)F)n2)NC(=O)NC1c1ccc2c(c1)OCO2` (centres undefined), the z-score was -1.04.
Under `CC(C)CCNC(=S)Nc1ccccn1` stands -0.14; under `CCCn1c(O)c(N=NC(=O)c2ccco2)c2ccccc21`, active: 3.17.
Under `CC(=O)NCCOc1ccc2oc3ccccc3c2c1` stands -0.506.
For the molecule `CCOC(=O)c1c(NC(=O)COC(=O)CNC(=O)c2ccco2)sc(C(C)=O)c1C`, the z-score was found to be 1.56.
Under `O=C(CNC(=S)N(CCCN1CCOCC1)Cc1cccs1)NC1CCCCCCC1` stands -0.687.
For `CCC(=O)OCc1cc2cccc(C)c2[nH]c1=O`, the z-score is 1.17.
For `CCOc1ccc(/C=N/O)cc1` the value was -0.0589; for `CC1(C)CC(=O)c2sc(NS(C)(=O)=O)nc2C1`, 0.105.
Under `Cc1cccc(-c2nc3ccccc3c(=O)n2NC(=S)N(C)C)c1` stands -0.0514; under `O=C(OCC(=O)N1CCc2ccccc21)c1ccc(Cl)nc1`, -0.126.
For `COc1ccc(N2CCN(C(CNS(=O)(=O)c3ccc4c(c3)OCCO4)c3ccco3)CC2)cc1` (centres undefined) the value was -0.267; for `CN(C)C(=O)CSc1nnc(CCN)o1`, 0.699.
On to `CCCCOc1ccc(C)cc1CN(CCO)CCO`, for which the z-score was 0.648.
In turn, `COc1ccc(Nc2nc(N)nc(CN3CCN(c4ccccn4)CC3)n2)cc1` displayed a z-score of 0.264.
Under `Cc1cc(C)n2nc(SCc3nnc(SCc4ccccc4Cl)s3)nc2n1` stands 0.0432; under `O=c1c(-c2ccco2)[n+]([O-])c2ccccc2n1OCc1ccccc1`, -1.43.
`COc1ccc(-c2nnc(NC(=O)CSc3ccc(C)cc3)s2)cc1OC` returned a z-score of -0.22.
Under `O=[N+]([O-])c1cc(Cl)ccc1NCCNS(=O)(=O)c1ccccc1` stands -0.267; under `O=CN(/C=C1\Sc2ccccc2C1=O)Cc1ccccc1`, -0.358; under `Cn1c2c(c(=O)n(C)c1=O)CN(CCCN1CCOCC1)CN2`, 0.177.
Under `NC(=O)c1nc(N2CCOCC2)nc(N2CCOCC2)n1` stands 0.152; under `O=C(NCC1CCCO1)C(c1cccs1)N(Cc1ccccc1Cl)C(=O)c1ccc(-c2ccccc2)[nH]1` (centres undefined), 2.14; under `Cc1cc(C(F)(F)F)n(-c2nc(C(=O)N/N=C/c3ccc(F)cc3)cs2)n1`, -0.0708.
As to `COc1ccc(C2C(C(=O)NCc3ccccn3)c3ccccc3C(=O)N2C)cc1OC` (centres undefined), the z-score was 0.753.
Under `CC1=C(C(=O)N2CCCCC2)C2(CCC(C)CC2)OC1=O` (centres undefined) stands 0.0979; under `CCc1nc(C)cn1S(=O)(=O)c1cc(Cl)c(OC)cc1Cl`, 2.99.
As for `CCCn1c(NCc2ccccc2NS(=O)(=O)c2ccc(C)cc2)nc2ccccc21`, the z-score was -0.784.
For `O=S(=O)(N1CCOCC1)N1CCN(c2ccc(F)cc2)CC1` the value was 0.324.
For `COc1ccc(/C=N/NC(=O)c2ccc(Br)cc2)cc1Cn1cc(Cl)cn1` the value was -0.434.
Under `CC(C)CCN(C)C1CCN(C(=O)Nc2c(F)cccc2F)CC1` stands -0.117.
Molecule `CC1CC(C)CN(CCCNC(=O)COc2cc(=O)n(C)c3ccccc23)C1` (centres undefined) yielded a z-score of -0.093.
For `COc1cc(OC)c(OC)cc1CN1CCN(c2ccccc2OC)CC1` the value was 0.548; for `COc1ccc2nc(N3CCCC(O)C3)c(C#N)cc2c1` (centres undefined), -0.141.
Under `CC(C)c1ccc(NC(=O)COc2ccc(S(=O)(=O)N3CCOCC3)cc2)cc1` stands 0.231; under `C/C(=N\NC(=O)CNC(=O)C(c1ccccc1)c1ccccc1)c1ccccc1`, -0.212; under `O=C(NC1CCCc2ccccc21)C1CCN(S(=O)(=O)c2ccccc2F)CC1` (centres undefined), -0.424.
Take `CN(C)S(=O)(=O)Oc1ccsc1C(=O)Nc1ccccc1Cl`: the z-score turned out to be 0.0382.
Under `O=C(CCN1C(=O)c2ccccc2C1=O)Nc1ccc(-c2cn3ccsc3n2)cc1` stands -0.468; under `COc1ccccc1/C=N/NC(=O)C(=O)Nc1ccccc1OC(F)(F)C(F)F`, -0.165.
Under `CC(C)CNC(=O)c1ccc(Cl)c(N)c1` stands -0.294; under `COc1ccc(N=C2C(=Nc3ccc(OC)cc3)N(c3ccc(OC)cc3)C(=S)N2C)cc1`, -0.0804; under `CCOC(=O)NC(CC(=O)O)c1ccc(OC)c(OC)c1` (centres undefined), -0.173.
`COc1ccccc1N1CCN(S(=O)(=O)c2cn(C)c(=O)n(C)c2=O)CC1` yielded a z-score of -0.107.
Under `CCOc1ccccc1C1C(C(=O)Nc2ccccc2OC)=C(C)Nc2nc(CCCO)nn21` (centres undefined) stands -0.324.
For `COc1ccc(CNC(=O)c2c(F)c(F)c(F)c(F)c2F)cc1` the value was 0.709; for `O=C(O)CCc1nc2ccccc2n(CCc2ccccc2)c1=O`, 0.396.
As for `CC(=O)NC(Cc1c[nH]c2ccccc12)C(=O)OCC(=O)Nc1ccc2c(c1)OCO2` (centres undefined), the z-score was -0.124.
For `COc1ccccc1C(c1nnnn1CCc1ccccc1)N1CCN(c2ccccc2)CC1` (centres undefined) the value was -0.00308; for `C=CCOC(=O)CC(NC(=O)c1ccccc1)c1ccccc1` (centres undefined), 0.0338; for `Cn1c(SCC(=O)N2CCOCC2)nnc1-c1cnccn1`, -0.285.
`Cc1cc(C)nc(N2CCCC(C(=O)NCCc3ccccc3F)C2)n1` (centres undefined): the z-score was -0.306.
The molecule `CCCCOc1ccc(NC(=O)C2CC=CCC2C(=O)O)cc1` (centres undefined) gave a z-score of -0.0643.
Under `Cc1ccc2cc(C)c(NCCO)nc2c1` stands -0.569.
Under `COc1ccc(-c2cc(-c3ccc(Br)cc3)nc3ncnn23)cc1OC` stands 0.366; under `CCC(C)NC(=O)C1(C)CCC(=O)N1CCc1ccc(OC)c(OC)c1` (centres undefined), 0.237; under `COc1ccccc1NC(=O)C1=C(C)Nc2ncnn2C1c1ccc(C)o1` (centres undefined), 0.084.
Under `Cc1ccc(CNC(=O)C2CCCN(C(=O)N(C)C)C2)cc1` (centres undefined) stands -0.391.
In the case of `Cc1ccc(F)cc1NC(=O)Cc1ncc(C(F)(F)F)cc1Cl`, the z-score was -0.126.
The molecule `CCOC(=O)c1[nH]c(C)c(/C(O)=C2\C(=O)C(=O)N(CCCN(CC)CC)C2c2cccnc2)c1C` (centres undefined) came in with a z-score of -0.0267.
The molecule `C=CCNC(=S)Nc1ccc(Br)cc1F` registered a z-score of -0.377.
Under `CCn1c(SC(C)C(=O)O)nnc1-c1cccnc1` (centres undefined) stands 0.16; under `Cc1nnc(SCC(=O)N2CCC(Cc3ccccc3)CC2)n(N)c1=O`, 0.252.
Under `O=C(C1CCCO1)N1CCN(C(=S)Nc2ccccc2Cl)CC1` (centres undefined) stands -0.132.
Under `CC(C)N1CCC2(CC1)C(C#N)=C(N)NC(S)=C2C#N` stands -0.314; under `O=C(Nc1ccc2c(c1)OCO2)Nc1cnccn1`, -0.0462.
For the molecule `COc1cc2c(cc1OC)C(C)N(C(=O)Cn1ncc3c1-c1ccccc1OC3)CC2` (centres undefined), the z-score was 0.448.
For `Cc1cccn2c(=O)c3cc(C#N)c(=O)n(CC4CCCO4)c3nc12` (centres undefined) the value was 0.00847.
Under `CCS(=O)(=O)N1CCCC(c2nc(-c3cccc(OC)c3)no2)C1` (centres undefined) stands -0.0718; under `COc1ccccc1C(=O)Oc1ccc2c(c1)O/C(=C\c1ccncc1)C2=O`, -0.0226; under `Cc1ccc(Nc2nc(NCC3CCCO3)nc(N)c2[N+](=O)[O-])cc1C` (centres undefined), 0.524.
For `CC(C)OP(=O)(OC(C)C)C(NC(=O)c1ccc(Br)cc1)c1ccccc1` (centres undefined) the value was -0.573.
The molecule `Cc1oc(-c2ccccc2F)nc1CS(=O)(=O)CC(=O)NCc1ccco1` returned a z-score of -0.265.
For `Cc1nc2ccc(NC(=O)N3CCOCC3)cc2s1` the value was 0.452; for `COc1ccc(S(=O)(=O)N2C3CCC2CC(NC(=O)NC2CCCCC2)C3)cc1` (centres undefined), 0.764; for `CCOC(=O)C1CCCN(C(=S)Nc2ccc(C)cc2C)C1` (centres undefined), 0.0188.
In turn, `COc1cc(C=O)c(Br)cc1OC1CCCC1` displayed a z-score of 2.09.
For `CC(=O)Oc1oc(-c2ccccc2)nc1/C=N/c1ccccn1` the value was -1.65; for `COCCNc1nc(N)c([N+](=O)[O-])c(NCC2CCCO2)n1` (centres undefined), 0.0244.
`CCC(=O)c1ccc(N2CCOCC2)c(F)c1`: the z-score is -0.287.
Under `Nc1ccc(Nc2ccccc2)cc1` stands -0.0331.
For `CCC(C)NS(=O)(=O)c1cccs1` (centres undefined) the value was 0.0332.
Under `COc1ccc(C)cc1N(CC(=O)Nc1cccc(N(C)S(C)(=O)=O)c1)S(C)(=O)=O` stands -0.07; under `CC1(C)CC(=O)N(CC(=O)NCc2ccccc2)c2ccccc2S1(=O)=O`, -0.409.
The molecule `CC(=O)N1CCN(c2ccc(NC(=S)NC(=O)/C=C/c3ccccc3)cc2)CC1` displayed a z-score of 0.391.
Under `Cc1ccc2nc(-c3ccc(NC(=O)c4ccco4)cc3)[nH]c2c1` stands 0.0819; under `O=C(CSc1ncnc2c1oc1ccccc12)Nc1cccc(C(F)(F)F)c1`, -0.491.
Under `O=C(CCCc1ccccc1)Nc1nncs1` stands -1.19.
For `CC(C)c1ccc(C(C(=O)NC2CCCC2)N(C(=O)CNC(=O)c2ccco2)c2cccnc2)cc1` (centres undefined) the value was -0.665; for `CC(C)CC(=O)Nc1ccc(-c2cn3ccsc3n2)cc1`, -0.00111; for `Cc1cccc(N2CCN(C(=O)c3ccc(Cl)c(S(=O)(=O)N4CCc5ccccc5C4)c3)CC2)c1C`, active: 3.61.
On to `C/C(=N/OCO/N=C(\C)c1ccc(F)cc1F)c1ccc(F)cc1F`, for which the z-score is -0.222.
For `COc1cccc(-c2nc(-c3ccc(NC(=O)Cc4ccccc4OC)cc3)no2)c1` the value was 0.363; for `N#Cc1cccc(C(c2nnnn2C2CCCC2)N2CCC(Cc3ccccc3)CC2)c1` (centres undefined), -0.0758; for `O=C(NCCc1ccccc1)/C(=N\O)c1ccccc1`, 1.09.
For `Cc1ccc(C2NC(=O)Cc3ccccc32)cc1` (centres undefined) the value was 0.00417; for `CSCCC(NC(=O)c1cccc(C)c1)C(=O)OCC(=O)NC(=O)c1cccn1C` (centres undefined), -0.329; for `CC(=O)NCC1=C(NC(C)=O)C2CC1C(C)(C)C2C` (centres undefined), 1.18.
In the case of `N#Cc1c2c(c(NCc3cccnc3)n3c1nc1ccccc13)CCC2`, the z-score was -2.03.
For `COc1cc(/C=N/NC(N)=S)cc(Br)c1OCc1ccccc1F` the value was -0.174; for `COc1ccccc1C(=O)OCCN1CCOCC1`, 0.692.
For `CS(=O)(=O)N(CC(=O)N1CCN(c2ccccc2)CC1)c1ccc(Cl)c(C(F)(F)F)c1` the value was -0.0753.
